Drawing on PMC7819943, “Rice protein-binding microarrays: a tool to detect cis-acting elements near promoter regions in rice”, this text covers binding signal for 42 sequences.

Some of the results follow.

The assay deals with T1, OsWOX13 (Oryza sativa, UniProt Q5QMM3 1-267).
T1 sequence: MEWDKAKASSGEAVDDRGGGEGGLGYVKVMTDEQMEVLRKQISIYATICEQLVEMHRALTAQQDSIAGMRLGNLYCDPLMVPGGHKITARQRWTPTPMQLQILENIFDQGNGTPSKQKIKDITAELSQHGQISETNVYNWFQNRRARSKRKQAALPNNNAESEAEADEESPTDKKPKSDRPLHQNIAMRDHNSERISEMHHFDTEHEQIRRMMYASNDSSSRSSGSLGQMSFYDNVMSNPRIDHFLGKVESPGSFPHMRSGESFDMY
Description: protein-binding microarray (RPBM); PBS, 2% BSA, 51.3 ng/ul salmon testes DNA, 50 uM zinc acetate, 200 nM TF, 25 C, 1 h; high values mean tight binding. The note with it: protein: recombinant; tags: N-terminal polyhistidine and DsRed monomer fusion (pET32a); label: CyDye5-dUTP incorporated in the synthesized complementary strand; 3' TTTTT single-stranded linker to array surface; dsDNA, one strand shown. In outline:
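Binding signal here means per-feature fluorescence intensity in arbitrary units. The values were read on an Axon 4000B scanner after a custom Agilent array, double-stranded by primer extension with Cy5-dUTP, was incubated with 200 nM protein at 25 °C for 1 h in PBS with 2% BSA, salmon testes DNA and 50 µM zinc acetate, then washed. The proteins were transcription factors with an N-terminal polyhistidine tag and DsRed, expressed in E. coli BL21-CodonPlus and purified on Ni–NTA.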
“GGCTATCAACTAATTAAACCTTCCCTCCGGCGTCAACATCCGGAGTCACCTAGTGCAG”: the binding signal was 4740 fluorescence intensity (a.u.).
The value for “CAAAAGCGTGACTCGTAGATTGACGCTATTACAGTTTAAGCGGAGTCACCTAGTGCAG” was 7830 fluorescence intensity (a.u.); that for “GATGATTGCCTGTGTGCCCTTGGTACTTGTGTGGAAGGTGCGGAGTCACCTAGTGCAG” was 34200 fluorescence intensity (a.u.); that for “TGTAGATTGCTCGTAGGCCATAGTGACGCCAACCCTCGCCCGGAGTCACCTAGTGCAG” was 7800 fluorescence intensity (a.u.).
As to “CGAAATTATAATGATTAAACAAAATTGATCGATATAACTACGGAGTCACCTAGTGCAG”, the binding signal was 41000 fluorescence intensity (a.u.).
As for “ACTAATTTCATAACTTGCCTGGAAACCACAAGACGAATCTCGGAGTCACCTAGTGCAG”, the figure is 9770 fluorescence intensity (a.u.); as for “GGTATAGATTAACTACAGCCTTATTATTTTCATTTTGTAACGGAGTCACCTAGTGCAG”, 3530 fluorescence intensity (a.u.); as for “ACTGAATTGATACAATGTGATGTGTAAGAACCAAGGTTGTCGGAGTCACCTAGTGCAG”, 19600 fluorescence intensity (a.u.).
The value for “CTAAAATTACATATGTAATTTAGGCACTTACATATGTAATCGGAGTCACCTAGTGCAG” was 19500 fluorescence intensity (a.u.); that for “CAAATACACGTAAACAAATTGACATGAGTCGACGCCTCCGCGGAGTCACCTAGTGCAG” was 16300 fluorescence intensity (a.u.); that for “TGTGAAATAGTGATTTGCAGTTTTACTGTAGTAAACAGTGCGGAGTCACCTAGTGCAG” was 8590 fluorescence intensity (a.u.).
As for “TATATTTATCAAATTAGTTTTATTAAATTAATAATTAAATCGGAGTCACCTAGTGCAG”, the figure is 3330 fluorescence intensity (a.u.); as for “AAAATTAAATTCTCATCTTAATCTCATCATCAATTCTCTTCGGAGTCACCTAGTGCAG”, 4810 fluorescence intensity (a.u.); as for “CAATTGATGTATCGAATCTTAATTAAGCCATGTATGGACACGGAGTCACCTAGTGCAG”, 8830 fluorescence intensity (a.u.).
Turning to “ACATCACTTACCAATAATCACTGACCATGCACATTTTCGACGGAGTCACCTAGTGCAG”, the binding signal is 3470 fluorescence intensity (a.u.).
As for “TTTGACGAGATAGAATATACTTTCTGAAGATGCCGAGGCTCGGAGTCACCTAGTGCAG”, the figure is 9390 fluorescence intensity (a.u.); as for “ATTATCGCATGATTGATTAAGCATTAGCTATTACAAACTTCGGAGTCACCTAGTGCAG”, 37100 fluorescence intensity (a.u.); as for “CCAAATTATACGTGCGGCCTATTTATGCGTATGGGCCTTTCGGAGTCACCTAGTGCAG”, 8940 fluorescence intensity (a.u.).
With “ACAAATTAAAGTAACAATCTGGACCGTTGATTATACGTGGCGGAGTCACCTAGTGCAG”, the binding signal was 21800 fluorescence intensity (a.u.).
As for “ATTTATTAATATTAATATTATTGTGGGAAATTTTAGAATGCGGAGTCACCTAGTGCAG”, the figure is 3460 fluorescence intensity (a.u.); as for “CGGCTAATTAATTTATATTTCTATATGTATTGACCCTGTTCGGAGTCACCTAGTGCAG”, 61100 fluorescence intensity (a.u.); as for “GTGATTATTTCGACAGTGTTCATATTGTTTATCCCCTATTCGGAGTCACCTAGTGCAG”, 8610 fluorescence intensity (a.u.).
The value for “TTAAATTTGGATGATAATTATAATCGAAAAGATGAGGAGGCGGAGTCACCTAGTGCAG” was 39000 fluorescence intensity (a.u.); that for “TGCAAATCACGCCCAAATTGCCCAAGTTATTGGTCGCCGACGGAGTCACCTAGTGCAG” was 17000 fluorescence intensity (a.u.); that for “GACTTGATAATTACCTTATTCTGTGTTCTGTGATAGCCTTCGGAGTCACCTAGTGCAG” was 12200 fluorescence intensity (a.u.).
The value for “AAGTTAGATTATAATGATATAATATATATACTATACAAATCGGAGTCACCTAGTGCAG” was 6480 fluorescence intensity (a.u.).
As for “TGGAATTATGGCAAACTAATGTGTAATTCTTACCTGTAACCGGAGTCACCTAGTGCAG”, the binding signal was 3390 fluorescence intensity (a.u.).
The value for “GTAGGCTCCAGTACATCAATCAGCCCCTTGTTACCACCACCGGAGTCACCTAGTGCAG” was 4100 fluorescence intensity (a.u.); that for “GACTAATTAAATAAAATGTTGAAATCATTATAAGGAAGAACGGAGTCACCTAGTGCAG” was 28100 fluorescence intensity (a.u.).
The value for “CAAATAAATTATTCACTTATTATCCTCTCCCACCTGGTTCCGGAGTCACCTAGTGCAG” was 22100 fluorescence intensity (a.u.); that for “TCGAAATGGAATTTTCAGTTTCAGACGAGATTCCGGAGACCGGAGTCACCTAGTGCAG” was 3160 fluorescence intensity (a.u.).
In the case of “TTTGAAGATTTAATTGTAACGAATTTAATGGTGCAATCGGCGGAGTCACCTAGTGCAG”, the binding signal is 20800 fluorescence intensity (a.u.).
The value for “TGCTACTCTACACAAATGATTGTTCCAATTTAAATAATCACGGAGTCACCTAGTGCAG” was 5480 fluorescence intensity (a.u.); that for “TGCACTTTAATTAAACCCACCTAAAATTTCATAATCCACACGGAGTCACCTAGTGCAG” was 5370 fluorescence intensity (a.u.); that for “TGTTTGATTTCATCCCGATTAATTACTAGTTTTCGGAATGCGGAGTCACCTAGTGCAG” was 18100 fluorescence intensity (a.u.).
“AACGCAAATTAATGAATGTGCAAGCGTATGTGTACATGGCCGGAGTCACCTAGTGCAG”: the binding signal was 14800 fluorescence intensity (a.u.).
The value for “ATTGAGACATGCAATCATCCTCTCTTTATTTCTACTGCTACGGAGTCACCTAGTGCAG” was 3920 fluorescence intensity (a.u.); that for “TAAATTTTGACTGATAAGTATAAGTATAAGCGAAAAGATTCGGAGTCACCTAGTGCAG” was 12400 fluorescence intensity (a.u.).
The value for “GATATGATATTGACACATGATATGTAATTATATATAGAGCCGGAGTCACCTAGTGCAG” was 11400 fluorescence intensity (a.u.).
As to “TAAATCATGGTGAAATTAGATTTAAAAGATTCATCTTGTACGGAGTCACCTAGTGCAG”, the binding signal is 7440 fluorescence intensity (a.u.).
As for “TACGAGTCAATTTATTCCGAAATAATATTGTCGTTAGAGTCGGAGTCACCTAGTGCAG”, the figure is 5640 fluorescence intensity (a.u.); as for “CGCCGCACAAATTAATTACACCTCGTAAACACAAATTAAGCGGAGTCACCTAGTGCAG”, 18600 fluorescence intensity (a.u.).
